# Test results as given in the supplement of paper PMC11417369.
# ± gives the standard deviation of the averaged measurements. Some of the results follow.
# Test system: PfAP2-G AP2 domain (GST-tagged)
# Experiment: gcPBM binding intensity (ln(normalized median fluorescence intensity)); higher = stronger DNA binding
# Procedure, shortened: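 Using an Agilent 4 × 180k array, primer-extended double-stranded 36-bp intergenic genomic probes and negative controls were exposed for 1 h to GST-fused P. falciparum DNA-binding domains expressed in E. coli. Binding was carried out in 1× PBS with 1% milk, 0.2 mg/ml BSA, 0.5% salmon testes DNA and 0.03% Triton X-100, and protein was detected with Alexa488 anti-GST antibody and a 488 nm scan. Binding intensity is the highest Masliner-normalised natural-log median intensity across replicate spots of either probe orientation.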
row,Sequence,gcPBM binding intensity (ln)
1,AATACTAAAACCCATACACACACATATATATAGTAC [CACACA_site9041],10.7 ± 0.23
2,ATATAAATAAATATATGTACACACACAAATATATAC [XGTACX_site3950],11.4 ± 0.73
3,TCTTTCTTATTTTAATGATATTTATTCATTCCAGTT [CACACA_negctrl_site1679],9.795 ± 0.021
4,TTAATTTATTTATGCACACATATATAATTACCCATA [CACACA_site682],10.1 ± 0.33
5,CGTATATATAAATACACACACATATATATCTGTAAA [CACACA_site4272],9.94 ± 0.2
6,AATTAAATTACTTATACACACATAAAATGGGTGTAT [CACACA_site4703],9.815 ± 0.092
7,AAAAAAAAAAAAAAGCGTACAAATAAAATATATTTA [XGTACX_site7195],11.6 ± 1
8,TATATATAAAAATATACACACACAAATGTATATATA [CACACA_site7956],9.855 ± 0.035
9,ATGTAATGAAACATTGCACACATATAATAATATAAT [CACACA_site8402],9.965 ± 0.021
10,CCTTTTTTGTTTTATGCACACCATATAACCAAGGCT [CACACA_site7893],10.3 ± 0.21
11,TAAATGTCCTTATTTGCACACACACCCATAAGAAAT [CACACA_site3185],11 ± 0.76
12,TTTTTATATGCGTATTGTACATTATACATATATATA [XGTACX_site6786],11 ± 0.49
13,AACATCAATTTATTTTCTTACATTATACGATTCATG [CACACA_negctrl_site1300],9.955 ± 0.092
14,AAAAAAAAATCAAAATGTACTTATTTTTATAATAAT [XGTACX_site4712],11.2 ± 0.81
15,TAATTATGCCAACACACACACACACCCAACTAAAAA [CACACA_site8823],10.4 ± 0.44
16,ATGATGTGCAAGAGTAGTACACAATTTTGGGTTTAT [XGTACX_site501],11.6 ± 1
17,AAACATAAGAAACACACACACATATATATATATATA [CACACA_site3642],10 ± 0.25
18,ATTCTTATAACAAGAAGTACAAATATATGTATATAT [XGTACX_site4528],11.3 ± 0.71
19,TTTTTTTTTAAGATGAAGATCAATATATAAATATAT [CACACA_negctrl_site1538],9.555 ± 0.035

row,Sequence,gcPBM binding intensity (ln)
1,AAAAAAAAAAAACATACACACATACATACCTATATA [CACACA_site6575],9.83 ± 0.071
2,AGAATATCAAAATAAAGTACATTTATTATATATATG [XGTACX_site7100],11.2 ± 0.87
3,TTTTCTCTCAAAAAATGTACATAATATATATATTTT [XGTACX_site4861],11 ± 0.58
4,ATACACACTTAAAAAAGTACTTAACTACATGAATTG [XGTACX_site1203],11.1 ± 0.59
5,ATATTATATATAAAATGTACATTTAAAAATATTATA [XGTACX_site889],10.9 ± 0.57
6,TTTTTTATTTTAAAAACATGCATAAAATATAATAGT [TGCATGCA_site762],10.1 ± 0.32
7,AGATAAAAAAAGTACACACACACATATATTTATATA [CACACA_site7437],11.8 ± 1.2
8,TATATATTTAATTTCACACATATATATAATTATTAT [CACACA_site4936],9.885 ± 0.007
9,TTTTGTTGGATACAAAAATTACAAATTATTTAAAAA [TGCATGCA_negctrl_site532],10 ± 0.28
10,TTTTTTTTTTTTTAAACATGCATAATAAATATAATA [TGCATGCA_site265],9.81 ± 0.35
11,TTTTTTATTTTGTGCACACACATAAAAATATATATA [CACACA_site761],10.7 ± 0.53
12,TTGTTTTCTTATTATTACTACAATACTTAAGTCAGA [TGCATGCA_negctrl_site184],10.1 ± 0.26
13,TATTTATTTATGGACACACATACAAATCTTCCAGAC [CACACA_site942],11 ± 0.62
14,TAATCATAACTTGATACGCACACGTTATATAAATAA [CACACA_site1579],10.4 ± 0.4
15,TATATATATAGAAATGCATGTTAATAAAAGTTATAA [TGCATGCA_site947],9.845 ± 0.035
16,GAATACATAATAACATGTACACACATTCTTCTATAA [XGTACX_site8725],11.2 ± 0.57
17,TATGAACACCAACACACACACAAAAAAAAAAAAAAA [CACACA_site2013],10.1 ± 0.7
18,TATCATAAAAAATATACACACAAAGGATATTTATAT [CACACA_site6841],9.84 ± 0.2
19,AAAAAAAATATAATATGTACATATCTATATATCAAC [XGTACX_site4881],11.2 ± 0.76

row,Sequence,gcPBM binding intensity (ln)
1,TATACATATGAAAATACACACATACATACAGATATA [CACACA_site5002],10.1 ± 0.12
2,TTGTTTTTAATATCGGTGCAATGGAAAGAAAAGAAG [GTGCAC_site9494],10.3 ± 0.3
3,GTACATTATTTATATACACACAAAGAAAAATATACA [CACACA_site3452],11 ± 0.54
4,TTTAAAATATATAGTACACACGTGAACACAAATACA [CACACA_site4392],11.5 ± 0.76
5,TAAAGCATATTATAAACACACACTGTATAAAGATAT [CACACA_site296],9.965 ± 0.049
6,TACGTAAAATAATTGAGTACATAATTATATATATAT [XGTACX_site5361],11.4 ± 0.91
7,AAAAATAATCATTAGGTGCAAAAAATATATATATAT [GTGCAC_site9631],10.2 ± 0.57
8,AACAAATATATATGTAGTACATGTTGTAGATAATTT [XGTACX_site24],11.5 ± 0.71
9,TTTTTTTTTTTAAATTCACACAATATATAAATATTG [CACACA_site5201],9.89 ± 0.057
10,AGAAAAATTATTTTGCGTACATATTTACAATAAAAA [XGTACX_site2144],11.5 ± 0.75
11,TATATGTATATATATTAACACACAAAAAAAAAAAAA [CACACA_site8534],9.82 ± 0.42
12,TAAACAAATAAATAAACACACAATATCTGTATTTAT [CACACA_site5978],9.27 ± 0.69
13,TTTTTCAGAAAAGAAACACACATATTTATATTTATA [CACACA_site7167],9.85 ± 0.057
14,AGTAATAGTTTGTGCACACTCAAGTATATCATATAT [CACACA_site4034],10.6 ± 0.29
15,TTTTACTTAAAACACACACACACAAAAAAAAAAAAA [CACACA_site947],10 ± 0.57
16,ATTAAATCGATATATACACACATGTTTGGTATATTC [CACACA_site7285],9.8 ± 0.15
17,TTAAAATAAAGTAGTGGTACAAAAAAAAAAAAAAAA [XGTACX_site6322],11.2 ± 1.2
18,TAACCTATAATATTCACACACATATAAATATTATAG [CACACA_site6592],9.86 ± 0.36
